# Measurements: PubChem BioAssay AID1460 (National Center for Advancing Translational Sciences (NCATS), 2008)
# About 5,800 (2.1%) of roughly 270,000 compounds were called active. The inconclusive results got no clear call from the source; some entries with a clear call stand among them for comparison. Calls come from the whole dose curve; as a rule, active = well fitted inhibition curve with a large enough effect; inconclusive = small, poorly fitted or top-dose-only effect; inactive = flat fitted curve, though single readings scatter. Potencies beside an inconclusive call are fits to weak or partial responses and may not hold up.
# Target: Microtubule-associated protein tau (Homo sapiens) (UniProt P10636)
# UniProt P10636, sequence (P10636 whole entry, looked up): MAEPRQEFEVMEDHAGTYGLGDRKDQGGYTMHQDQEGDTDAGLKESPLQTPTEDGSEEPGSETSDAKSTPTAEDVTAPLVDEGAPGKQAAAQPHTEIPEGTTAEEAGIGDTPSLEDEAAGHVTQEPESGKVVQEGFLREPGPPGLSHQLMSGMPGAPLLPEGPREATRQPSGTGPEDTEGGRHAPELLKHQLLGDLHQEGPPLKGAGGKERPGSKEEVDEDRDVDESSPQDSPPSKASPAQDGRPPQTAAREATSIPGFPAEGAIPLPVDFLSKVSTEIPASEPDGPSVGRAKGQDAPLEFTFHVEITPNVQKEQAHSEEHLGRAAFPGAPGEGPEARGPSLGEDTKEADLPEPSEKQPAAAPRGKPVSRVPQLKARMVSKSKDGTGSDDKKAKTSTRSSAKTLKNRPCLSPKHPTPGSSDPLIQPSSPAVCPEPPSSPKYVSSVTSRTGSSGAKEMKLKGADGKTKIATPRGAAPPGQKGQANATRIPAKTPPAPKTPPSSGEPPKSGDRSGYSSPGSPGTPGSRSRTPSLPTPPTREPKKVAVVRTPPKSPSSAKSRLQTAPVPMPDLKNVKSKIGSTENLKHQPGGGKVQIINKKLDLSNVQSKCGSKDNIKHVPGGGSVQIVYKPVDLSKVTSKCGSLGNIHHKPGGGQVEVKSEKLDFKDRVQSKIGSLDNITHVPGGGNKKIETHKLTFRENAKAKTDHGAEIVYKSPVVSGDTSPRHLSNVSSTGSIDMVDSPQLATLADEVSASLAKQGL
# Test: qHTS for Inhibitors of Tau Fibril Formation, Thioflavin T Binding; note: nearly all actives have a fitted effect of over 55% in size
# Settings: recombinant tau K18 P301L, heparin-induced fibrillization, ThT fluorescence; series mostly up to 57.4 µM
# How it was run: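 Using a mix of unlabeled (15 uM) and Alexa 594-labeled (0.24 uM) tau K18 P301L, heparin-triggered fibrillization over 6 hr at 37 C was scored by ThT fluorescence.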
# Potency is the fitted concentration of half-maximal effect; tags give direction and shape of the fitted curve.
row,Compound,Potency
1,Cc1cc(C(=O)CSc2nc3ccccc3o2)c(C)n1C1CC1,"inconclusive: 17.8 µM [inhibitor, partial curve]"
2,CC(=O)CC(=O)Nc1ccc(Nc2ccccc2)cc1,"inconclusive: 28.2 µM [inhibitor, single point]"
3,CCOc1ccc(NC(=O)Cn2nnc(-c3ccccc3NC(=O)C3CC3)n2)cc1,inactive
4,CCOC(=O)c1sc(=S)n(-c2ccccc2Cl)c1SC,inactive
5,CCOc1ccc(NCc2cccn2-c2nnc(N3CCC(C(=O)NCc4ccccc4Cl)CC3)s2)cc1,"inconclusive: 7.94 µM [inhibitor, partial curve]"
6,CCN(CC)C1=N/C(=C\c2ccco2)C(=O)N1c1ccccc1,"inconclusive: 31.6 µM [inhibitor, single point]"
7,COc1ccc(-n2c(C)c([N+](=O)[O-])c3ccc(O)c(CN4CCCCC4)c32)cc1,"inconclusive: 35.5 µM [inhibitor, single point]"
8,CCc1ccc(OCCSc2nc3ccccc3n2CC(=O)N2CCCCC2)cc1,"inconclusive: 22.4 µM [inhibitor, single point]"
9,COc1ccc(N2CCN(S(=O)(=O)c3ccc(F)c(C(=O)Nc4ccccc4Cl)c3)CC2)cc1,inactive
10,COc1ccc(NC(=O)CCc2nc(-c3ccc(C)cc3)no2)cc1Cl,"inconclusive: 0.126 µM [inhibitor, full curve, poor fit]"
11,CSc1nnc(-c2ccco2)c(-c2ccco2)n1,active: 12.6 µM
12,COc1cc(/C=N/NC(=O)c2cccnc2)ccc1OS(=O)(=O)c1ccc(C)cc1,inactive
13,Cc1ccc(NNC(N)=S)cc1Cl,"inconclusive: 15.8 µM [inhibitor, partial curve]"
14,O=C(CSc1nc(O)cc(=O)[nH]1)N1CCCc2ccccc21,"inconclusive: 35.5 µM [inhibitor, partial curve, poor fit]"
15,Cc1nc2cc(Nc3nnc(-c4ccccc4)c4ccccc34)ccc2n1C,inactive
16,COc1ccc(CC(=O)N2CCc3cc(OC)c(OC)cc3C2COc2ccc(F)cc2)cc1 (stereo unspecified),inactive
17,COc1ccc(Sc2nc(-c3ccccn3)ncc2OC)cc1,inactive
18,Cc1cc(C(F)(F)F)n(-c2nc(C(=O)NN)cs2)n1,"inconclusive: 15.8 µM [inhibitor, partial curve, poor fit]"
19,COc1ccc(C(=O)Nc2ccccc2-c2nc3ccccc3s2)cc1OC,inactive
20,Cc1noc(C(=O)Nc2ccc3c(c2)OCO3)c1Cl,"inconclusive: 31.6 µM [inhibitor, single point]"
21,CCOc1[nH]n(-c2ccc(Cl)cc2)c(=O)c1C=Nc1ccc(OC)cc1,"inconclusive: 12.6 µM [inhibitor, partial curve]"
22,O=C(N/N=C/c1cn(-c2ccccc2)nc1-c1cc2ccccc2o1)c1cccnc1,"inconclusive: 31.6 µM [activator, partial curve]"
23,COc1cccc(CNC(=O)c2cnc3c(-c4ccc(F)cc4)c(C)nn3c2C)c1,inactive

row,Compound,Potency
1,CC(=O)Nc1ccc(NC(=O)c2nc(S(=O)(=O)Cc3ccc(F)cc3)ncc2Cl)cc1,"inconclusive: 3.16 µM [inhibitor, full curve]"
2,COc1cc(/C=C(\C#N)c2nc3ccc(C)cc3[nH]2)ccc1OCc1ccc(C)cc1,"inconclusive: 2 µM [inhibitor, full curve]"
3,Cc1ccc(-n2c(=O)[nH]cc(C(=O)N3CCc4ccccc43)c2=O)cc1C,"inconclusive: 25.1 µM [inhibitor, single point]"
4,CCCCNC(=O)c1cccc(NC(=O)c2nsc3ccccc23)c1,inactive
5,Brc1ccc(CNc2nc3ccccc3n2CCN2CCCCC2)cc1,"inconclusive: 3.16 µM [inhibitor, full curve, poor fit]"
6,Cc1c(C(=O)NCc2ccc3c(c2)cc(C)n3C)cccc1[N+](=O)[O-],inactive
7,Cc1cc(C)nc(N/N=C/c2cc3c(cc2[N+](=O)[O-])OCO3)n1,inactive
8,CCc1nn(C(CC)C(=O)NCc2ccc(OC)c(OC)c2)c(=O)c2cc3oc(C)cc3n12 (stereo unspecified),inactive
9,Cc1ccc(OCCSc2nc(-c3ccccc3C)nc3cc(=O)[nH]n23)cc1Cl,"inconclusive: 28.2 µM [inhibitor, single point]"
10,CCCCC[C@H](O)/C=C/[C@@H]1[C@H]2C/C(=C/CCCC(=O)O)C[C@H]2C[C@H]1O,inactive
11,CC1=C(C(=O)OC(C)C)[C@@H](c2cccc3nonc23)C([N+](=O)[O-])=C(C)N1,"inconclusive: 11.2 µM [inhibitor, partial curve]"
12,Cc1ccc(NC(=O)C(=O)NCC(c2cccnc2)N2CCN(Cc3ccccc3)CC2)cc1C (stereo unspecified),inactive
13,COc1ccccc1-n1nnnc1S(=O)(=O)Cc1ccc(Cl)cc1,"inconclusive: 28.2 µM [inhibitor, single point]"
14,O=Cc1ccc(N2CCCC2)c([N+](=O)[O-])c1,"inconclusive: 17.8 µM [inhibitor, partial curve]"
15,Brc1cccc(OCCN2CCCCC2)c1,inactive
16,O=c1cc(-c2ccccc2)[nH]n1-c1nc2ccccc2[nH]1,active: 25.1 µM
17,COc1ccccc1-c1nn2c(-c3ccco3)nnc2s1,"inconclusive: 11.2 µM [inhibitor, partial curve, poor fit]"
18,C#CCn1c(=NC(=O)CSCC(=O)N2CCOCC2)sc2ccccc21,"inconclusive: 35.5 µM [inhibitor, single point]"
19,CCCCN(CCCNC(=O)C1CCN(S(=O)(=O)N2CCOCC2)CC1)Cc1ccccc1,inactive
20,CN(C(=O)COC(=O)c1cc(-c2ccc(Cl)s2)nc2ccccc12)C1CCS(=O)(=O)C1 (stereo unspecified),"inconclusive: 25.1 µM [inhibitor, single point]"
21,COc1ccc2c(c1OC)C(=O)N1N=C(c3ccc(Cl)cc3)CC21 (stereo unspecified),inactive
22,COC(=O)c1ccc(Cl)cc1NC(=O)N1CC2CCCN2c2ccccc21 (stereo unspecified),"inconclusive: 39.8 µM [inhibitor, single point]"
23,CCOC(=O)C1CCN(c2cc3c(cc2NC(=O)c2ccc(Cl)cc2)n(C)c(=O)n3C)CC1,inactive
